Results as given in article PMC4336329 (PLoS ONE, 2015).
The campaign covered roughly 310,000 compounds. About 2,200 (0.71%) showed an effect of 50% or more. Effects have a minus sign here. The list shows a part of the results.

molecular target: human ether-à-go-go-related gene (hERG) potassium channel (human, UniProt Q12809); assay: primary screen, population patch clamp on CHO cells stably expressing hERG
Sequence (Q12809 whole entry, looked up): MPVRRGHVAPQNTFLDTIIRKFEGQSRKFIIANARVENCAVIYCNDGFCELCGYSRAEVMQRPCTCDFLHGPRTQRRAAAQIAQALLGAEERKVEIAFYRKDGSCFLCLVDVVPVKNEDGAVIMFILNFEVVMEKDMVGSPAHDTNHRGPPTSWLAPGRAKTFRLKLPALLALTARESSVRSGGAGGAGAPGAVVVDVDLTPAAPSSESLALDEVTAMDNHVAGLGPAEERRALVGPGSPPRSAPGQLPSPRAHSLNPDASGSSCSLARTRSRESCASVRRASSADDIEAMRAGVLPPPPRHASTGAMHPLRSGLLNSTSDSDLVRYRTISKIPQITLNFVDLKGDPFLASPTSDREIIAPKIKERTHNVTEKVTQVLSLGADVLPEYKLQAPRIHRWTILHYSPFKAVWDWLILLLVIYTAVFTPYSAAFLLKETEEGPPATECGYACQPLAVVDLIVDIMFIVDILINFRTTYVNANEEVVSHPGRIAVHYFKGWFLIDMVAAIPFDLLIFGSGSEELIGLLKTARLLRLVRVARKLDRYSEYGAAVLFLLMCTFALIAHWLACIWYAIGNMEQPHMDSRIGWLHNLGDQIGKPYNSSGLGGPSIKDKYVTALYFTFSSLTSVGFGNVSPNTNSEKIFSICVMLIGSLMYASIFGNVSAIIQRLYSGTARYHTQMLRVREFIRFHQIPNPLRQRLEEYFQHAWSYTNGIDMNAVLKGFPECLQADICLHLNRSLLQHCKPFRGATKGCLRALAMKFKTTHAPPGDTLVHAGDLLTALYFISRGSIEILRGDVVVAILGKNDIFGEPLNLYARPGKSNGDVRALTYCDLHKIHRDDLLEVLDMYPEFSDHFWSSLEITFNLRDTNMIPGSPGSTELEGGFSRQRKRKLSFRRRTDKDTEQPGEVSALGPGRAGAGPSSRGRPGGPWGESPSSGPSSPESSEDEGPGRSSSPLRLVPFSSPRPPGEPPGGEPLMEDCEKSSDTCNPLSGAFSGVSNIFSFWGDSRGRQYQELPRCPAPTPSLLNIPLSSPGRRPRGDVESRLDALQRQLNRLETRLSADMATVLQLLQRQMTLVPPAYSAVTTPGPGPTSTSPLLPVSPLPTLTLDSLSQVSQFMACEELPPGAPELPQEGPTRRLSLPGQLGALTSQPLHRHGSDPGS

SMILES	hERG current change (%, negative = inhibition) at 1uM
COCCNC(=O)CN(Cc1ccccc1)C(=O)CCC(=O)Nc1nccs1	18.2%
CNc1nc(Oc2ccc(=O)n(C)n2)nc(N2CCOCC2)n1	-2.31%
COc1ccccc1CNC(=O)CC(NS(=O)(=O)c1ccc(C)cc1)c1ccco1 (stereo not drawn)	6.67%
O=C1Nc2ccccc2/C1=C/c1ccccc1F	16.2%
N#C/C(=C(/O)c1cccc(F)c1)c1nc2ccccc2s1	16.2%
CS(=O)(=O)c1ccccc1-c1nnc(NC(=O)COc2ccc(Cl)cc2)o1	9.74%
COc1ccc(OC)c(/C=N/NC(=O)c2nnn(-c3nonc3N)c2-c2cccs2)c1	12.6%
COC(=O)C(C)Sc1nnc(SC(C)C(=O)OC)s1 (stereo not drawn)	23%
Cn1c(O)c(N=NC(=O)Cn2c(C(F)(F)F)nc3ccccc32)c2ccccc21	-0.0289%
Cc1ccc(N=Cc2c(O)c3ccccc3n(C)c2=O)cc1	14.6%
C=CCNC(=O)C1CC(=O)N(c2ccc(OCC(=O)N3CCCC3)cc2)C1 (stereo not drawn)	14.8%
OC(CNCc1ccc(Cl)cc1)(c1ccccc1)c1ccc(F)cc1 (stereo not drawn)	12.3%
CCOC(=O)Cc1csc(NC(=O)c2ccco2)n1	1.68%
COc1ccc(NC(=O)/C=C/c2ccc(OC(F)F)cc2)cn1	9.26%
COC(=O)c1ccc(N=NNc2ccccc2)cc1	8.1%
O=C1NC[C@H](c2ccccc2)N(CCc2cccc3ccccc23)C1=O	2.78%
COc1ccc(NC(=S)NNC(=O)CCn2cc([N+](=O)[O-])cn2)cc1	16%
O=C(NCCN1CCOCC1)c1ccc2ccccc2c1	13.5%
COC(=O)C1=C(c2cc3ccccc3s2)C[C@@H]2CC[C@H]1N2C(=O)NCc1cccc2ccccc12	13.7%
COc1ccc(/C=N/NC(=O)CSCc2ccc([N+](=O)[O-])cc2)cc1OC	5.43%
O=C(O)/C=C/C(=O)N1CCN(c2ccc(F)cc2)CC1	11.2%
O=C(CCOc1ccccc1)Nc1cccc(S(=O)(=O)Nc2ccccc2Cl)c1	-2.15%
CC1(C)CC(NS(=O)(=O)c2ccc(Cl)cc2)CC(C)(C)N1	14.5%
CC(C)=C1SC(N2CCN(c3cccc(C)c3)CC2)=NC1=O	-3.92%
Cc1ccc(S(=O)(=O)N2CCN(C(=O)CN3C(=O)NC4(CCCCC4)C3=O)CC2)c(C)c1	10.6%
COc1c2c(c(C)c3c1C(=O)OC3)O[C@@]1(C)CC[C@@]3(O)C(C)(C)OC(=O)CC[C@]3(C)[C@H]1C2	6.72%
CC(=O)OCC(=O)Nc1c(C)cccc1C	11.3%

SMILES	hERG current change (%, negative = inhibition) at 1uM
Oc1cc2c(cc1O)[C@H]1c3ccc(O)c(O)c3OC[C@@]1(O)C2	14.2%
Cc1ccc(O)c(N=NC2=C(O)CC(C)(C)CC2=O)c1	6.39%
Cn1c(SCC(=O)Nc2ccc(C(N)=O)cc2)nc2c(c1=O)SCC2	12.7%
Cc1ccc2c(c1)N(S(=O)(=O)c1ccc(F)cc1)C(C(C)(C)C)CO2 (stereo not drawn)	16.3%
CCOC(=O)[C@@H]1[C@H]2COc3ccccc3[C@@H]2N2C(=O)N(c3ccccc3)C(=O)[C@]12C	5.97%
Cc1ccc(CNC(=O)[C@H](Cc2ccccc2)NC(=O)C2CCNCC2)cc1	5.28%
COc1cc(OC)cc(-c2cc3nc(C)c(CCC(=O)NCc4ccccc4)c(C)n3n2)c1	-0.576%
CN(C)N1C(N)=C(C#N)C(c2ccc(Cl)cc2)C2=C1CCCC2=O (stereo not drawn)	-0.808%
CSCCC(NS(=O)(=O)c1ccccc1F)C(=O)NCC(C)(C)N1CCOCC1 (stereo not drawn)	-1.69%
CCOc1ccccc1CN1CCN(Cc2cn(C)nc2-c2ccccc2)CC1CCO (stereo not drawn)	-21%
COc1ccc(CCNC(=O)c2cc(C(=O)c3cc(Cl)ccc3O)cn(CCc3ccc(OC)cc3)c2=O)cc1	7.84%
CC1CCCC(NC(=O)COC(=O)c2ccc(N(C)C)cc2)C1C (stereo not drawn)	-9.23%
CC#CCN1c2ccccc2[C@]23C[C@@H](C(=O)OC)N(C(=O)C4CCC4)C2=NC(C(=O)OC)=C(C(=O)OC)[C@H]13	5.18%
CCc1ccc(-n2c(SCC(=O)Nc3cc(C)[nH]n3)nc3[nH]ncc3c2=O)cc1	-7.74%
Cc1cccc(N2CCN(C(=O)CCCn3c(=O)c4cccn4c4cccnc43)CC2)c1C	-14.3%
CC(C)(C)c1nc(S(=O)(=O)c2ccc(Cl)cc2)c(N2CCOCC2)o1	2.56%
CCOc1ccc(S(=O)(=O)N2CCCC(C(=O)NCC3CCCO3)C2)cc1Cl (stereo not drawn)	-1.41%
Brc1ccc(OCc2nnc3n2CCC3)cc1	3.03%
O=c1cc(-c2cccnc2)oc2c1ccc1ccccc12	10.6%
Oc1[nH]c2ccccc2c1N=Nc1ccc(F)cc1	9.66%
CCNC(=O)n1nccc1C(C)Oc1ccccc1 (stereo not drawn)	-8.81%
C=CCOc1ccc(CNc2ccc(NC(=O)CC(C)C)cc2)cc1OC	19.3%
CSc1ccc(Cl)c(C(=O)OCC(=O)Nc2ccccc2OC(F)F)c1	8.8%
CCNc1nc(NCC)n2c(SCc3nc4ccccc4c(=O)[nH]3)nnc2n1	6.86%
Nc1cccc(-c2cn(-c3cc4cc(C#CC5(O)CCCCC5)ccc4oc3=O)nn2)c1	14.4%
Cc1ccc2cc(CN(C(=O)c3ccco3)c3ccccc3C)c(=O)[nH]c2c1	-3.84%
COc1ccc(C2=NN(C(=O)COc3ncnc4ccccc34)C(c3ccco3)C2)cc1 (stereo not drawn)	8.36%
